In all, about 230,000 compounds went through this assay and about 1,500 (0.65%) were called active. The inconclusive results got no clear call from the source; some entries with a clear call stand among them for comparison. Calls come from the whole dose curve; as a rule, active = well fitted inhibition curve with a large enough effect; inconclusive = small, poorly fitted or top-dose-only effect; inactive = no such curve, though single readings can be large or run the other way. Potencies beside an inconclusive call are fits to weak or partial responses and may not hold up.
target: Lethal(3)malignant brain tumor-like protein 1 (Homo sapiens) (UniProt Q9Y468); test: qHTS Assay for the Inhibitors of L3MBTL1; conditions: AlphaScreen L3MBTL1–H3K9me1 peptide binding; activity, negative = inhibition: at 57.1 µM (top of the series); note: nearly all actives have a fitted effect of over 60% in size
Chain of UniProt Q9Y468 (Q9Y468 whole entry, looked up): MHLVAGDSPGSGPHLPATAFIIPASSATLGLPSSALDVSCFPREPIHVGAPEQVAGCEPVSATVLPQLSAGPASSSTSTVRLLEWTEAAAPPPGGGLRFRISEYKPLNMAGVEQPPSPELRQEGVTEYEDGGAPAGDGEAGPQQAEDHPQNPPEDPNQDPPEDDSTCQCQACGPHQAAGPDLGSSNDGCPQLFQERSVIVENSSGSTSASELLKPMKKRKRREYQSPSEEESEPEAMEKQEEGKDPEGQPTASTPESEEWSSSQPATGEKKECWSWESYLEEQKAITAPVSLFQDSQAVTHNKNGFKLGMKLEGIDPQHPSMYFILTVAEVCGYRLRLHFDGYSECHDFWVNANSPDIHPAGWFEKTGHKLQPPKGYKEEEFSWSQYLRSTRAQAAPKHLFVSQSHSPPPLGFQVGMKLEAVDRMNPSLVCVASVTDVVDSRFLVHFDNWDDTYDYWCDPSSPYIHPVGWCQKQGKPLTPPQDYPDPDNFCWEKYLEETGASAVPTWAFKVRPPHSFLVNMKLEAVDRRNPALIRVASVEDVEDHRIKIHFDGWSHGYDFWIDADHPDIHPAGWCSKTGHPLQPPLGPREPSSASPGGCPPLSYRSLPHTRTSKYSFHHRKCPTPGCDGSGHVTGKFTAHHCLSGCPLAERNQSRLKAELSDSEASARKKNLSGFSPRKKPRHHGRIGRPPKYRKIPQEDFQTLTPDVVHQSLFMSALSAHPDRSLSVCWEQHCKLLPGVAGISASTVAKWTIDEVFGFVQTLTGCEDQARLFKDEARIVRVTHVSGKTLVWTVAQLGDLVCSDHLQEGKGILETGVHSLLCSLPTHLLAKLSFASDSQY
Procedure, shortened: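 First, the protein-peptide complex forms for 30 min at room temperature (L3MBTL1 50 nM, biotinylated H3K9me1 peptide 75 nM). Next, compounds are pin-transferred and incubated 30 min. Finally, AlphaScreen beads are added and read after 30 min.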
% is set by controls: 0 for no effect and ±100 for the full control effect; potency is the fitted concentration of half-maximal effect; tags give direction and shape of the fitted curve.

Row | SMILES | Potency | activity, negative = inhibition
1 | Cc1cc2ccccn2c1C(=O)c1nc(NCc2ccccc2)ncc1Cl | inconclusive: 39.8 µM [inhibitor, partial curve] | –
2 | COc1cc(NC(=S)Nc2ccc(N(C)C(C)=O)cc2)cc(OC)c1 | – | inactive: -0.882%
3 | Cc1cc(Br)ccc1NC(=O)CN1C(=O)C2CC=CCC2C1=O (stereo not given) | – | inactive: -4.84%
4 | NS(=O)(=O)c1ccc(N/N=C2/CCCCC2C2CCCCC2)c([N+](=O)[O-])c1 (stereo not given) | inconclusive: 14.1 µM [inhibitor, partial curve] | –
5 | O=C(N/N=C/c1ccc(-c2ccccc2C(=O)O)o1)c1cccs1 | active: 25.1 µM | –
6 | O=S(=O)(c1cccs1)N1CCN(C/C=C/c2ccccc2)CC1 | – | inactive: -4.51%
7 | CCOC(=O)c1cc(C(=O)OCC)cc(-n2c(C)cc(C(=O)CN3CCOCC3)c2C)c1 | – | inactive: -3.77%
8 | O=C(Nc1ccc(NC(=O)C2CC2)nc1)c1cnccn1 | – | inactive: 0.0249%
9 | COC(=O)Cc1c(O)ccn(CCc2ccccc2)c1=O | inconclusive: 39.8 µM [inhibitor, single point] | –
10 | Cc1ccc([N+](=O)[O-])cc1S(=O)(=O)N1CCCC1 | inconclusive: 44.7 µM [inhibitor, partial curve, poor fit] | –
11 | CC1=NN(c2ccccc2)C(=O)C1 | – | inactive: -11.2%
12 | Cc1nc(Nc2ccccc2F)c2nnn(Cc3ccccc3Cl)c2n1 | inconclusive: 6.31 µM [inhibitor, single point] | –
13 | O=c1c2ccccc2nc2c3ccccc3c(NCCO)nn12 | – | inactive: 1.36%
14 | O=C(COC(=O)C1CCN(S(=O)(=O)c2cccs2)CC1)c1cc2ccccc2o1 | active: 31.6 µM | –
15 | Cn1c(=O)n(C)c2cc(NC(=O)c3ccccc3[N+](=O)[O-])c(Br)cc21 | inconclusive: 39.8 µM [inhibitor, single point] | –
16 | COc1ccc(C(=O)O)cc1S(=O)(=O)Nc1ccc(N2CCCCC2)cc1 | inconclusive: 39.8 µM [inhibitor, single point] | –
17 | O=C(NCc1ccccc1)Nc1cccn(Cc2cccc(F)c2)c1=O | inconclusive: 39.8 µM [inhibitor, single point] | –
18 | NC(=S)n1[nH]c(-c2ccc([N+](=O)[O-])cc2)c(N=Nc2ccc(Cl)cc2)c1=O | inconclusive: 28.2 µM [inhibitor, single point] | –
19 | CC(=O)Nc1ccc(S(=O)(=O)NCCSCc2ccco2)cc1 | – | inactive: -9.02%
20 | CC(=O)N1CCN(S(=O)(=O)c2cccc(C(=O)Nc3ccccc3N3CCOCC3)c2)CC1 | inconclusive: 3.55 µM [inhibitor, partial curve, poor fit] | –
21 | CCn1cc(-c2ccnc3cc(C(=O)O)nn23)c(C)n1 | inconclusive: 0.1 µM [inhibitor, full curve, poor fit] | –
22 | CCN1C(=O)[C@@H]2[C@@H](c3ccc(-c4ccc(Cl)c(Cl)c4)c(OC)c3)N3CCC[C@@]3(C(=O)OC)[C@@H]2C1=O | inconclusive: 14.1 µM [inhibitor, partial curve, poor fit] | –
23 | Cc1ccc(/C=C/C(=O)O)cc1S(=O)(=O)Nc1ccccc1C(=O)O | inconclusive: 39.8 µM [inhibitor, single point] | –
24 | S=C(Nc1ccc(Cl)cc1)c1nc2ccccc2[nH]1 | inconclusive: 22.4 µM [inhibitor, single point] | –

Row | SMILES | Potency | activity, negative = inhibition
25 | O=C(c1ccccc1)N1CCN(Cc2cccc(Oc3ccccc3)c2)CC1 | – | inactive: 0.138%
26 | COc1ccc(C(=O)/C=C/C(=O)N(CC(=O)NC2CCCCC2)Cc2ccccc2OC)c(O)c1 | – | inactive: -3.6%
27 | CC(C)CCC1(C)NC(=O)N(CC(=O)c2ccc[nH]2)C1=O (stereo not given) | inconclusive: 28.2 µM [inhibitor, single point] | –
28 | O=C(COC(=O)C1=COCCO1)NC1CCCCCCC1 | inconclusive: 0.794 µM [inhibitor, single point] | –
29 | S=c1[nH]nc(C2CCCCC2)n1/N=C/c1ccc(Br)s1 | – | inactive: -1.57%
30 | N#C/C(=C\c1ccc2c(c1)OCCO2)C(=O)NC1CCCCC1 | inconclusive: 6.31 µM [inhibitor, single point] | –
31 | COC(=O)c1sc(SC)c(S(=O)(=O)C(C)C)c1N/N=C(\C#N)C(=O)c1ccccc1 | – | inactive: -14.8%
32 | CCN(CC)c1ccc(C(=O)NNC(=O)c2cccn2C)cc1 | inconclusive: 11.2 µM [inhibitor, partial curve] | –
33 | C=C(C)C1(O)OC(=O)C=C1OC (stereo not given) | inconclusive: 0.794 µM [inhibitor, single point] | –
34 | Cn1c(=O)c2c(SCC(=O)N3CCN(c4ccccc4)CC3)nc(C3CC3)nc2n(C)c1=O | – | inactive: 4.76%
35 | COc1ccc(C2(C)NC(=O)N(CC(=O)Nc3c(C)n(C)n(-c4ccccc4)c3=O)C2=O)cc1 (stereo not given) | – | inactive: 2.69%
36 | NCC(=O)NCC(=O)NC[C@H]1O[C@@H](n2cnc3c(N)ncnc32)[C@H](O)[C@@H]1O | – | inactive: 9.71%
37 | Oc1cccc2ccc(Nc3ccccn3)nc12 | inconclusive: 5.01 µM [inhibitor, single point] | –
38 | O=C(Nc1nc(-c2ccco2)c(-c2ccco2)s1)c1ccc(F)cc1F | active: 8.91 µM | –
39 | O=C(O)c1cccc(Cn2cc(Cl)cn2)c1 | inconclusive: 39.8 µM [inhibitor, single point] | –
40 | O=C(Cc1cccs1)Nc1cccc(C(=O)Nc2ccc(C(=O)O)cc2)c1 | – | inactive: 2.48%
41 | COc1ccccc1NC(=O)Nc1nc(CC(=O)Nc2ccc(N(C)C)cc2)cs1 | inconclusive: 35.5 µM [inhibitor, single point] | –
42 | Cc1ccc(NC(=S)Nc2cccc3cnccc23)c(C)c1 | – | inactive: 0.698%
43 | COc1ccc(-c2cc(C(F)(F)F)nc(SCC(=O)Nc3sc4c(c3C#N)CCC4)n2)cc1 | inconclusive: 28.2 µM [inhibitor, single point] | –
44 | COc1cc(CN(C(=O)c2ccco2)c2ccc(C)cc2)ccc1O | inconclusive: 2 µM [inhibitor, single point] | –
45 | Cc1ccccc1NC(=S)c1nc2ccccc2[nH]1 | inconclusive: 35.5 µM [inhibitor, single point] | –
46 | O=C(Nc1nc(-c2ccccc2)cs1)c1cccc([N+](=O)[O-])c1C(=O)O | – | inactive: -5.85%
47 | Oc1ccc(N=Cc2ccc(-c3cccs3)s2)cc1 | inconclusive: 39.8 µM [inhibitor, single point] | –
48 | c1ccc(CNc2ncnc3scc(-c4cccs4)c23)nc1 | inconclusive: 10 µM [inhibitor, partial curve] | –

Row | SMILES | Potency | activity, negative = inhibition
49 | Oc1ccccc1C1Nc2cccc3cccc(c23)N1 | inconclusive: 22.4 µM [inhibitor, single point] | –
50 | Cc1noc(C)c1COC(=O)c1cnc(Cl)c(Cl)c1 | inconclusive: 0.158 µM [inhibitor, full curve, poor fit] | –
51 | Oc1cccc(/C=N/Nc2cc(N3CCOCC3)nc(N3CCOCC3)n2)c1 | – | inactive: -5.89%
52 | Cc1ccccc1-c1n[nH]c(=S)n1/N=C/C=C/c1ccco1 | inconclusive: 35.5 µM [inhibitor, single point] | –
53 | Cc1[nH]c(N=Nc2ccccc2)nc1N=Nc1ccccc1 | inconclusive: 31.6 µM [inhibitor, partial curve] | –
54 | O=C(O)C(Oc1ccc2c3c(c(=O)oc2c1)CCC3)c1ccccc1 (stereo not given) | inconclusive: 3.98 µM [inhibitor, single point] | –
55 | O=C(COc1ncnc2sccc12)N1CCN(C(=O)c2ccco2)CC1 | inconclusive: 17.8 µM [inhibitor, single point] | –
56 | COc1ccc(C(=O)/C=C/c2ccccc2)c(O)c1 | inconclusive: 12.6 µM [inhibitor, partial curve] | –
57 | CCC(CN(C)C)Oc1cc(NCc2ccccc2)c2ncn(C(C)C)c2c1 (stereo not given) | inconclusive: 17.8 µM [inhibitor, partial curve] | –
58 | CCC1=NN(C(=O)c2ccc([N+](=O)[O-])cc2)C(O)(c2ccccc2)C1 (stereo not given) | inconclusive: 31.6 µM [inhibitor, single point] | –
59 | COC(=O)c1ccc2c(=O)n(Cc3ccc(C(=O)NCCCN4CCC(C)CC4)cc3)c(=S)[nH]c2c1 | inconclusive: 39.8 µM [inhibitor, single point] | –
60 | CCOc1ccc(/C(O)=C2/C(=O)C(=O)N(CC3CCCO3)C2c2ccco2)cc1 (stereo not given) | inconclusive: 31.6 µM [inhibitor, single point] | –
61 | O=c1oc2ccccc2c2oc3cc(O)c(O)cc3c12 | inconclusive: 10 µM [inhibitor, partial curve] | –
62 | CC1(c2ccccc2)NC(=O)N(CC(=O)Nc2ccc([N+](=O)[O-])cc2)C1=O (stereo not given) | – | inactive: -13.2%
63 | CCCCCOc1ccc(N2C(=O)CC(N(O)c3ccccc3)C2=O)cc1 (stereo not given) | – | inactive: -7.05%
64 | N=c1c2c(-c3ccccc3)c(-c3ccccc3)n(Cc3ccco3)c2ncn1CCCO | inconclusive: 22.4 µM [inhibitor, partial curve, poor fit] | –
65 | Cc1cc(C)c(/C([O-])=C(/C(=S)Nc2ccc(SC(F)F)cc2)[n+]2ccccc2)cc1C | inconclusive: 25.1 µM [inhibitor, single point] | –
66 | COc1ccccc1CNc1ccc2c(c1)CCC2 | – | inactive: 1.13% [at 2.29 µM]
67 | COc1cccc(CNC(=O)COC(=O)c2c(C)nn(-c3ccccc3)c2Cl)c1 | inconclusive: 25.1 µM [inhibitor, partial curve] | –
68 | COc1ccccc1CN=c1c([N+](=O)[O-])nn(-c2ccc3c(c2)OCCO3)n1O | inconclusive: 35.5 µM [inhibitor, single point] | –
69 | O=C(Oc1cccc([N+](=O)[O-])c1)c1ccc2c(=O)n3c(nc2c1)CCC3 | inconclusive: 31.6 µM [inhibitor, single point] | –
70 | COc1ccc(-n2c(SCC(=O)OC(C)C)nnc2-c2ccccn2)cc1 | inconclusive: 35.5 µM [inhibitor, single point] | –
